For some assays here: Part of at least one peptide drawing is inferred or uncertain, most often the ends. For some assays here: At least one compound was matched to its structure with a doubt left. Some entries share one result that the patent states for a list of compounds. *1 amine or outer side, *2 acyl side, *3 side chain or, on linkers, in order; H or OH if unused. Where a SMILES comes first, the peptide text is derived from it. [ ]: non-standard residue; d: D form. X2 = CCCCN([C@@H](CCCNC(=N)N)C(=O)[*:2])[*:1]
Tests used:
thrombin = thrombin (Homo sapiens, UniProt P00734); assay: Protease inhibition action (thrombin, synthetic coloring base S-2238); assay type: biochemical; details: thrombin final conc. 10 U/ml, preincubated at 37° C. for 5 minutes, S-2238 37° C. 15 minutes, 405 nm
Method: Each of peptides Nos. 1, 31 to 34 was mixed at various volume with thrombin (final conc. 10 U/ml), and the resultant mixture was preincubated at 37° C. for 5 minutes. A synthetic coloring base (Test Team^R S-2238 available from Daiichi Kagaku Yakuhin) was added to the above preincubated mixture and was reacted at 37° C. for 15 minutes.
2% citric acid was added to the above mixture to stop the reaction. Hydrolysis was performed using residual thrombin, and free p-nitroaniline removed from the synthetic coloring base was subjected to colorimetric determination at a wavelength of 405 nm, thereby obtaining the inhibition capability with reference to 0.1M tris buffer. On the base of the inhibition capability thus obtained, a concentration of the peptides when each peptide inhibited the activity of thrombin with 50%, i.e. IC50 was calculated.

Hybrid grown-up dogs [1] = assay: Hypotensive action (blood pressure and blood flow rate); assay type: in vivo, dog; details: anesthetized dogs
SD rats = assay: Wound healing action (traction tension of skin wound); assay type: in vivo, rat; details: skin wound stripe, eighth day; 32 nmol/kg i.v. once a day for 8 days; male SD rats; control 456.2 ± 21.6
From the text: The male SD rats (each group consisted of 10 rats) were anesthetized with ether and shaved in the back of the each rat, and the anesthetized portion was formed by a length of 30 mm along the median line by using a degreased, sterilized razor blade. The wound was immediately sutured at three equidistant positions, and the stitches were taken out after three days. The rats were subjected to hemorrhage to death in the eighth day, and the skins were peeled from the rats.
A skin stripe having a size of 1 cm×4 cm was formed from a wounded portion of each rat. Both ends of this stripe were set in a wound curing measurement tensile test instrument (TK-251 available from Unicom), and a tensile force (traction tension: g/cm) required to cut the wound portion was measured.
Each hexapeptide compound according to the present invention was dissolved in an acetic acid buffer solution added with 1% BSA and was intravenously injected to each rat for 8 days (once a day) from the date of wound formation. As a control, 1 ml/kg of the sodium acetat buffered solution added with 1% BSA instead of the hexapeptide solutions was injected according to same procedure as described above.

Hybrid grown-up dogs [2] = assay: Anti-DIC action (platelet number after endotoxin); assay type: in vivo, dog; details: for Average Number of Platelets 120 Minutes after Venous Injection of Endotoxin: 32 nmol/kg i.v. 30 minutes before 3 mg/kg E. coli endotoxin i.v., control 43 × 10^4; for Average Number of Platelets Immediately before Injection Endotoxin: 32 nmol/kg i.v., baseline sample, control 72 × 10^4
Method: Hybrid grown-up dogs (each group consisted of six dogs) were used in this experiment. 30 mg/kg of pentobarbital were intravenously injected to anesthetize each dog. Intravenous injection of 32 nmol/kg of each of peptides Nos. 1, 31 and 32 was performed. After 30 minutes, 3 mg/kg of an endotoxin derived from Escherichia Coli were intravenously injected while the artificial respiration was performed with air.
Samples of blood were collecting from each dog immediately before the injection of the peptides and 120 minutes after the injection of the endotoxin.
As a control, a experiment was performed according to same procedure as described above except that the hexapeptides was not injected.
The number of platelets is the number per 1 mm^3 (1 μl) of the blood in Table 7.

Sprague-Dawley (SD) rats = assay: Vascular permeability acceleration suppression action (hot-water leg edema); assay type: in vivo, rat
Method: After 6-week male Sprague-Dawley (SD) rats (each group consisted of 10 rats) were fed for a week, they were used in this experiment.
The concentrations of samples of the hexapeptides (peptide Nos. 1 to 30) were dissolved by an acetic acid buffer solution added with a 1% bovine serum albumin (BSA).
An aliqrot of 1 ml/kg of each of the peptides Nos. 1 to 30 was injected into the femoral vein of the right leg of each rat anesthetized with 50 mg/kg of Nembutal Sodium (available from Dainippon Pharmaceutical Co., Ltd.). After 10 minutes, the nontreated left leg of the rat was dipped in 58° C. hot water for one minute to form an edema. Each rat was left at room temperature for 29 minutes, and the volumes of both legs of each rat were measured. As a control, the experiment following the same procedure as describe above was performed except that 1 ml/kg of a sodium acetate buffered solution containing 1% BSA instead of the hexapeptide of the present invention was injected in rats.
A rate (%) of increase in leg volume was calculated from the result of the above measurement by equation (1) below: [formula]
The rates were compared with that of the control.
- X: rate of increase in leg volume (%) of the present invention.
Xo: rate of increase in leg volume (%) of the control

Wister rats = assay: Anti-allergic action (passive cutaneous anaphylaxis reaction); assay type: in vivo, rat; details: PCA reaction, 32 nmol g/kg i.v. 10 minutes before provocation, control 188.3 ± 9.71
Method: In this experiment, 6-week, male Wister rats (each group consisted of 10 rats) were used, and the back of these rats were shaved.
An anti-egg albumin rat serum was diluted with a saline to forty-fold of its volume, thereby obtaining an anti-egg albumin rat serum solution. 1 ml of the anti-egg albumin rat serum solution was intradermally injected to both side parts against the median line in the shaved portion, thereby sensitizing passively the rats. After 48 hours, 1 ml of a 0.5% Evans blue solution containing 10 mg of a egg-albumin was intravenously injected to the each rat, thereby provocating a passive cutaneous anaphylaxis (PCA) reaction.
After 30 minutes, the rats were decapitated, thereby subjecting to hemorrhage to death. The skins were peeled from the rats, and a long diameter and a short diameter of a blue stained portions caused by the PCA reaction in each rat were measured, and area of the blue-stained portions were calculated on the base of the obtained data.
In these operations, the of peptides Nos. 1, 31 and 32 were dissolved in a sodium acetate buffered solution containing 1% BSA and was intravenously injected to each rat at 10 minutes before the provocation of the PCA reaction. As a control, the sodium acetate buffer solution containing 1% BSA instead of the peptide solutions was injected according to same procedure as described above.

Wistar rats = assay: Anti-edematous action (freezing-induced vascular cerebral edema); assay type: in vivo, rat; details: left cerebral cortex, 32 nmol/kg i.v. 10 minutes before and 20 minutes after the freezing, male Wistar rats, control 81.4
Method: In this experiment, 8-week male Wistar rats were used, and peptides Nos. 1, 31 and 32 dissolved in a saline added with 1% BSA were used.
Iron column whose diameter was 5 mm cooled by dryice acetone was placed on the left epidural portion of each rat to cause a vascular cerebral edema. Freezing was performed to form an injured portion after an hour, and the brain of each rat was taken out. The brain was divided into right and left cerebral cortices, and weights of the left cerebral cortices were measured. The left cerebral cortices was dried at 105° C. for 24 hours, and weights of the dried left cerebral cortices were measured to obtain water contents (%). In this operations, the peptides Nos. 1, 31 and 32 were intravenously injected at the concentration shown in Table 6 to each rat 10 minutes before and 20 minutes after the freezing. As a control, 1 ml/kg of the saline added with 1% BSA instead of the peptides was injected into rat according to same procedures as described above.

Row | SMILES | IC50 (thrombin) | blood flow rate after the injection (Hybrid grown-up dogs [1]; ascending aorta, 2 nmol/kg intravenously) | blood flow rate before the injection (Hybrid grown-up dogs [1]; ascending aorta, baseline before injection) | average blood pressure after the peptide injection (Hybrid grown-up dogs [1]; femoral artery, 2 nmol/kg intravenously) | average blood pressure before the hexapeptide injection (Hybrid grown-up dogs [1]; femoral artery, baseline before injection) | Traction Tension (SD rats) | Average Number of Platelets 120 Minutes after Venous Injection of Endotoxin (Hybrid grown-up dogs [2]) | Average Number of Platelets Immediately before Injection Endotoxin (Hybrid grown-up dogs [2]) | vascular permeability acceleration suppression action (in words) (Sprague-Dawley (SD) rats; hot-water leg edema, SD rats) | Suppression Rate (%) (Sprague-Dawley (SD) rats; suppression of rate of increase in leg volume vs control, 1 ml/kg into femoral vein 10 minutes before dipping leg in 58° C. hot water for one minute, male SD rats) | Area of blue-stained portion (mm^2) (Wister rats) | Water Content (%) (Wistar rats)
1 | CCCCN[C@@H](CCCNC(=N)N)C(=O)N[C@@H](CCCNC(=N)N)C(=O)N1CCC[C@H]1C(=O)N[C@@H](Cc1ccc(O)cc1)C(=O)N[C@H](C(=O)N[C@@H](CC(C)C)C(N)=O)[C@@H](C)CC [Peptide No. 34, N-buthyl--Arg--Arg--Pro--Tyr--Ile--Leu--NH2] (H-[X2]RPYIL-NH2) | 2200 nM |  |  |  |  |  |  |  |  |  |  | 
2 | CC[C@H](C)[C@H](NC(=O)[C@H](Cc1ccc(O)cc1)NC(=O)[C@@H]1CCCN1C(=O)[C@H](CCCNC(=N)N)NC(=O)CCCCNC(=N)N)C(=O)N[C@@H](CC(C)C)C(=O)O [Peptide No. 1, Desamino-Arg--Arg--Pro--Tyr--Ile--Leu--OH] |  | 0.75 L/min | 0.95 L/min | 48 mmHg | 84 mmHg | 545.7 ± 31.2 g/cm | 61 × 10^4 per 1 mm^3 (1 μl) of the blood | 68 × 10^4 per 1 mm^3 (1 μl) of the blood | confirmed to have a vascular permeability acceleration suppression action and could suppress edemata | 81.6% | 80.2 ± 3.76 mm^2 | 81.2%
3 | CC[C@H](C)[C@H](NC(=O)[C@H](Cc1ccc(O)cc1)NC(=O)[C@@H]1CCCN1C(=O)[C@H](CCCNC(=N)N)NC(=O)[C@H](CCCNC(=N)N)NC(C)=O)C(=O)N[C@H](CO)CC(C)C [Peptide No. 31, N-acetyl--Arg--Arg--Pro--Tyr--Ile-Leucinol] |  |  |  |  |  | 539.2 ± 27.7 g/cm | 64 × 10^4 per 1 mm^3 (1 μl) of the blood | 70 × 10^4 per 1 mm^3 (1 μl) of the blood |  |  | 141.5 ± 7.96 mm^2 | 80.8%

From patent publication US5393740A, “Neurotensin Hexapeptides” (Tsumura & Co., priority 1991, dated 1995)
